This is one part of the list. Antibody binding of pooled human sera (four to six donors per pool; dilution not stated) to peptides of the Trypanosoma cruzi antigen TSSA on microarrays. Quantile-normalised fluorescence in arbitrary units, mean of duplicate arrays; higher = more binding. No active / inactive call. The uninfected pools are read here as the healthy donors of the same country. The strongest signals lie near the top of the scale (about 60,000).
Tested on: pooled sera of chronic Chagas disease patients, Brazil
Assay: antibody binding signal (normalised fluorescence) (arbitrary fluorescence units); higher = stronger serum antibody binding to peptide
Procedure: (§1)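 Microarray of 15-residue peptides over residues 30-55 of Trypanosoma cruzi TSSAII, each with 1 to 10 substitutions at naturally variable positions, probed with one serum pool per country.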

| Sequence | antibody binding signal |
| --- | --- |
| STPPSGKEKKAAAGG | 380 |
| KAAAGGTPSQSGASS | 414 |
| TDNKTAAGEAPSPPG | 5410 |
| KKAATGEAPSQSGAS | 23700 |
| TDNKTATGETPSQPG | 34700 |
| KDKKPATGEAPSQPG | 45100 |
| TDKKPATGGAPSPSG | 1950 |
| KDNKTATGGTPSPSG | 321 |
| KTAAGGTPSPPGASS | 204 |
| KDNKTATGGAPSQSG | 280 |
| SGKENKAATGGAPSP | 18300 |
| ENKPATGETPSQPGA | 47500 |
| KKAATGEAPSPPGAS | 21600 |
| GTENKAAAGETPSPP | 10300 |
| TPPSGTENKPATGGT | 54200 |
| TEKKPAAGGAPSQSG | 488 |
| GTDNKTAAGGTPSPP | 20200 |
| GKENKAATGGTPSPS | 9490 |
| KPATGETPSQPGASS | 44400 |
| GKDNKPAAGGTPSQP | 1910 |

| Sequence | antibody binding signal |
| --- | --- |
| GTENKAATGETPSPP | 24200 |
| KKTAAGEAPSQSGAS | 2510 |
| SGTENKAATGEAPSP | 36800 |
| GKENKAATGETPSQS | 27400 |
| KEKKAATGETPSQPG | 28200 |
| GKDKKPATGGAPSPP | 318 |
| SSTPPSGTENKTAAG | 60000 |
| TDKKTATGGAPSQPG | 1080 |
| TPPSGTDNKPAAGGA | 49100 |
| TENKAAAGETPSPPG | 11900 |
| ISTPPSGKEKKAAAG | 305 |
| KKTAAGGTPSQSGAS | 239 |
| GKENKAAAGETPSPP | 14000 |
| GKDNKAAAGGAPSPP | 280 |
| GKDNKPATGETPSQS | 37000 |
| SGKDKKTAAGGTPSQ | 289 |
| TPPSGKDNKTATGGA | 2060 |
| KKPATGETPSPPGAS | 21300 |
| KEKKAATGETPSPSG | 2480 |
| GKDNKAAAGGTPSPP | 238 |

Tested on: pooled sera of chronic Chagas disease patients, Colombia
Assay: as above
Procedure: as §1

| Sequence | antibody binding signal |
| --- | --- |
| STPPSGKEKKAAAGG | 2110 |
| KAAAGGTPSQSGASS | 4280 |
| TDNKTAAGEAPSPPG | 190 |
| KKAATGEAPSQSGAS | 150 |
| TDNKTATGETPSQPG | 250 |
| KDKKPATGEAPSQPG | 354 |
| TDKKPATGGAPSPSG | 2950 |
| KDNKTATGGTPSPSG | 1710 |
| KTAAGGTPSPPGASS | 7970 |
| KDNKTATGGAPSQSG | 1640 |
| SGKENKAATGGAPSP | 6970 |
| ENKPATGETPSQPGA | 285 |
| KKAATGEAPSPPGAS | 202 |
| GTENKAAAGETPSPP | 988 |
| TPPSGTENKPATGGT | 248 |
| TEKKPAAGGAPSQSG | 4780 |
| GTDNKTAAGGTPSPP | 4350 |
| GKENKAATGGTPSPS | 6240 |
| KPATGETPSQPGASS | 159 |
| GKDNKPAAGGTPSQP | 1080 |

| Sequence | antibody binding signal |
| --- | --- |
| GTENKAATGETPSPP | 1670 |
| KKTAAGEAPSQSGAS | 277 |
| SGTENKAATGEAPSP | 188 |
| GKENKAATGETPSQS | 17900 |
| KEKKAATGETPSQPG | 199 |
| GKDKKPATGGAPSPP | 990 |
| SSTPPSGTENKTAAG | 395 |
| TDKKTATGGAPSQPG | 3100 |
| TPPSGTDNKPAAGGA | 5810 |
| TENKAAAGETPSPPG | 213 |
| ISTPPSGKEKKAAAG | 724 |
| KKTAAGGTPSQSGAS | 3960 |
| GKENKAAAGETPSPP | 8060 |
| GKDNKAAAGGAPSPP | 1240 |
| GKDNKPATGETPSQS | 2500 |
| SGKDKKTAAGGTPSQ | 4850 |
| TPPSGKDNKTATGGA | 1140 |
| KKPATGETPSPPGAS | 157 |
| KEKKAATGETPSPSG | 167 |
| GKDNKAAAGGTPSPP | 1220 |

Tested on: pooled sera of chronic Chagas disease patients, Mexico
Assay: as above
Procedure: as §1

| Sequence | antibody binding signal |
| --- | --- |
| STPPSGKEKKAAAGG | 28600 |
| KAAAGGTPSQSGASS | 321 |
| TDNKTAAGEAPSPPG | 218 |
| KKAATGEAPSQSGAS | 172 |
| TDNKTATGETPSQPG | 179 |
| KDKKPATGEAPSQPG | 265 |
| TDKKPATGGAPSPSG | 952 |
| KDNKTATGGTPSPSG | 242 |
| KTAAGGTPSPPGASS | 668 |
| KDNKTATGGAPSQSG | 284 |
| SGKENKAATGGAPSP | 4580 |
| ENKPATGETPSQPGA | 483 |
| KKAATGEAPSPPGAS | 133 |
| GTENKAAAGETPSPP | 1330 |
| TPPSGTENKPATGGT | 4720 |
| TEKKPAAGGAPSQSG | 572 |
| GTDNKTAAGGTPSPP | 330 |
| GKENKAATGGTPSPS | 6750 |
| KPATGETPSQPGASS | 198 |
| GKDNKPAAGGTPSQP | 596 |

| Sequence | antibody binding signal |
| --- | --- |
| GTENKAATGETPSPP | 1850 |
| KKTAAGEAPSQSGAS | 511 |
| SGTENKAATGEAPSP | 184 |
| GKENKAATGETPSQS | 14000 |
| KEKKAATGETPSQPG | 198 |
| GKDKKPATGGAPSPP | 1030 |
| SSTPPSGTENKTAAG | 8240 |
| TDKKTATGGAPSQPG | 827 |
| TPPSGTDNKPAAGGA | 16600 |
| TENKAAAGETPSPPG | 241 |
| ISTPPSGKEKKAAAG | 8780 |
| KKTAAGGTPSQSGAS | 441 |
| GKENKAAAGETPSPP | 6940 |
| GKDNKAAAGGAPSPP | 709 |
| GKDNKPATGETPSQS | 3700 |
| SGKDKKTAAGGTPSQ | 678 |
| TPPSGKDNKTATGGA | 31800 |
| KKPATGETPSPPGAS | 235 |
| KEKKAATGETPSPSG | 188 |
| GKDNKAAAGGTPSPP | 774 |

Reference: the supplement of paper PMC10441789
